# The other results are listed elsewhere or left out.
# How the values were obtained:
# Test in all cases: glycan array binding signal (z-score within array); higher = stronger binding
# Conditions in all cases: glycan notation: IUPAC condensed, linker removed
# Gal3S6S(b1-4)GlcNAc6S = target: Gal3S6S(b1-4)GlcNAc6S
# Summary of the method: (§1)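 Glycan array binding is given as a within-array Z-score, which can be read as non-binding when negative. The arrays, 3228 of them, came from the Consortium for Functional Glycomics database and were retained only where the protein sequence was available. Z-scores were averaged across arrays of the same protein sequence at different concentrations or buffers and across linkers.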
# Gal4S(b1-4)GlcNAc = target: Gal4S(b1-4)GlcNAc
# Summary of the method: as §1
# Gal4S6S(b1-4)GlcNAc = target: Gal4S6S(b1-4)GlcNAc
# Summary of the method: as §1
# Gal6P(b1-4)GlcNAc = target: Gal6P(b1-4)GlcNAc
# Summary of the method: as §1
# Gal6S(b1-3)GlcNAc = target: Gal6S(b1-3)GlcNAc
# Summary of the method: as §1
# Gal6S(b1-3)GlcNAc6S = target: Gal6S(b1-3)GlcNAc6S
# Summary of the method: as §1
# Gal6S(b1-4)Glc = target: Gal6S(b1-4)Glc
# Summary of the method: as §1
# Gal6S(b1-4)Glc6S = target: Gal6S(b1-4)Glc6S
# Summary of the method: as §1
# Gal6S(b1-4)GlcNAc = target: Gal6S(b1-4)GlcNAc
# Summary of the method: as §1
# Gal6S(b1-4)GlcNAc6S = target: Gal6S(b1-4)GlcNAc6S
# Summary of the method: as §1
# GalNAc(a1-3)Gal = target: GalNAc(a1-3)Gal
# Summary of the method: as §1
# GalNAc(a1-3)GalNAc = target: GalNAc(a1-3)GalNAc
# Summary of the method: as §1
# [1] = target: GalNAc(a1-3)GalNAc(b1-3)Gal(a1-4)Gal(b1-4)Glc
# Summary of the method: as §1
# [2] = target: GalNAc(a1-3)GalNAc(b1-3)Gal(a1-4)Gal(b1-4)GlcNAc
# Summary of the method: as §1
# GalNAc(b1-3)Gal = target: GalNAc(b1-3)Gal
# Summary of the method: as §1
# [3] = target: GalNAc(b1-3)Gal(a1-4)Gal(b1-4)GlcNAc
# Summary of the method: as §1
# [4] = target: GalNAc(b1-3)Gal(a1-4)Gal(b1-4)GlcNAc(b1-3)Gal(b1-4)Glc
# Summary of the method: as §1
# [5] = target: GalNAc(b1-3)Gal(a1-6)Gal(b1-4)Glc
# Summary of the method: as §1
# GalNAc(b1-3)GalNAc = target: GalNAc(b1-3)GalNAc
# Summary of the method: as §1
# GalNAc(b1-3)GlcNAc = target: GalNAc(b1-3)GlcNAc
# Summary of the method: as §1
# GalNAc(b1-4)Gal(b1-4)Glc = target: GalNAc(b1-4)Gal(b1-4)Glc
# Summary of the method: as §1
# GalNAc(b1-4)GlcNAc = target: GalNAc(b1-4)GlcNAc
# Summary of the method: as §1
# [6] = target: GalNAc(b1-4)GlcNAc(b1-2)Man
# Summary of the method: as §1
# [7] = target: GalNAc(b1-4)GlcNAc(b1-2)Man(a1-3)[GalNAc(b1-4)GlcNAc(b1-2)Man(a1-6)]Man(b1-4)GlcNAc(b1-4)GlcNAc
# Summary of the method: as §1
# [8] = target: GalNAc(b1-4)GlcNAc(b1-3)GalNAc(b1-4)GlcNAc
# Summary of the method: as §1
# GalNAc(b1-4)GlcNAc6S = target: GalNAc(b1-4)GlcNAc6S
# Summary of the method: as §1
# GalNAc(b1-6)GalNAc = target: GalNAc(b1-6)GalNAc
# Summary of the method: as §1
# GalNAc3S(b1-4)GlcNAc = target: GalNAc3S(b1-4)GlcNAc
# Summary of the method: as §1
# GalNAc3S(b1-4)GlcNAc3S = target: GalNAc3S(b1-4)GlcNAc3S
# Summary of the method: as §1
# [9] = target: GalNAc3S(b1-4)[Fuc(a1-3)]GlcNAc
# Summary of the method: as §1
# GalNAc4S6S(b1-4)GlcNAc = target: GalNAc4S6S(b1-4)GlcNAc
# Summary of the method: as §1
# GalNAc6S(b1-4)GlcNAc = target: GalNAc6S(b1-4)GlcNAc
# Summary of the method: as §1
# Glc(a1-4)Glc = target: Glc(a1-4)Glc
# Summary of the method: as §1
# [10] = target: Glc(a1-4)Glc(a1-4)Glc(a1-4)Glc
# Summary of the method: as §1
# Glc(a1-6)Glc(a1-6)Glc = target: Glc(a1-6)Glc(a1-6)Glc
# Summary of the method: as §1
# [11] = target: Glc(a1-6)Glc(a1-6)Glc(a1-6)Glc
# Summary of the method: as §1
# Glc(b1-4)Glc = target: Glc(b1-4)Glc
# Summary of the method: as §1
# Glc(b1-6)Glc = target: Glc(b1-6)Glc
# Summary of the method: as §1
binder,measurement,setting,value
FliD (Clostridium difficile) (protein) MSSISPVRVTGLSGNFDMEGIIEASMIRDKEKVNKAKQDQQIVKWKQEIYRDIIKESKNLYDKYLNGDSPNSITNKKAYSATRITSSDESIIVAKGSAGAEKINYQFAVSQMAEPAKVTIKLNSSDPIVQQFPPNASGASSLNIGGVNIPISEQDTTSTIVSKINSLCADNDIRASYSEMTGELIISRKQTGSSSDIDLKVIGNDSLAGQIASDNGITFTTDASGTKSAVVYGKNLEADVTDDQGRVTHISKEQNSFKIDNIDYNVNSKGSAKLVSVTDTEEATKNMKAFVDDYNALMDKVYGLVTTKKSKDYPPLTDEQKDDMTTEEIEKWEKKAKEGILRNDDELRAFVEDIQSMFFGDADTIIALRKLGISEHENYNKKGQISFNADTFSKALIDDSDKVYKALAGYSSNYDDKGMFEKLKKIVFEYSGSSASKLTKKAGMENSSSASQNVYSKQIAEQERNISRLVEKMNDKEKRLYAKYSALESLLNKYSSQMNYFSQAQGN,glycan array binding signal (z-score),Gal3S6S(b1-4)GlcNAc6S,-0.169
same,glycan array binding signal (z-score),Gal4S(b1-4)GlcNAc,-0.236
same,glycan array binding signal (z-score),Gal4S6S(b1-4)GlcNAc,-0.204
same,glycan array binding signal (z-score),Gal6P(b1-4)GlcNAc,-0.134
same,glycan array binding signal (z-score),Gal6S(b1-3)GlcNAc,-0.222
same,glycan array binding signal (z-score),Gal6S(b1-3)GlcNAc6S,-0.198
same,glycan array binding signal (z-score),Gal6S(b1-4)Glc,-0.112
same,glycan array binding signal (z-score),Gal6S(b1-4)Glc6S,-0.231
same,glycan array binding signal (z-score),Gal6S(b1-4)GlcNAc,-0.232
same,glycan array binding signal (z-score),Gal6S(b1-4)GlcNAc6S,-0.228
same,glycan array binding signal (z-score),GalNAc(a1-3)Gal,-0.165
same,glycan array binding signal (z-score),GalNAc(a1-3)GalNAc,0.034
same,glycan array binding signal (z-score),[1],-0.09
same,glycan array binding signal (z-score),[2],-0.181
same,glycan array binding signal (z-score),GalNAc(b1-3)Gal,0.623
same,glycan array binding signal (z-score),[3],-0.103
same,glycan array binding signal (z-score),[4],-0.169
same,glycan array binding signal (z-score),[5],-0.043
same,glycan array binding signal (z-score),GalNAc(b1-3)GalNAc,-0.226
same,glycan array binding signal (z-score),GalNAc(b1-3)GlcNAc,-0.175
same,glycan array binding signal (z-score),GalNAc(b1-4)Gal(b1-4)Glc,-0.057
same,glycan array binding signal (z-score),GalNAc(b1-4)GlcNAc,-0.162
same,glycan array binding signal (z-score),[6],-0.234
same,glycan array binding signal (z-score),[7],-0.139
same,glycan array binding signal (z-score),[8],-0.246
same,glycan array binding signal (z-score),GalNAc(b1-4)GlcNAc6S,-0.165
same,glycan array binding signal (z-score),GalNAc(b1-6)GalNAc,-0.271
same,glycan array binding signal (z-score),GalNAc3S(b1-4)GlcNAc,-0.238
same,glycan array binding signal (z-score),GalNAc3S(b1-4)GlcNAc3S,-0.219
same,glycan array binding signal (z-score),[9],-0.182
same,glycan array binding signal (z-score),GalNAc4S6S(b1-4)GlcNAc,-0.169
same,glycan array binding signal (z-score),GalNAc6S(b1-4)GlcNAc,-0.294
same,glycan array binding signal (z-score),Glc(a1-4)Glc,-0.054
same,glycan array binding signal (z-score),[10],-0.183
same,glycan array binding signal (z-score),Glc(a1-6)Glc(a1-6)Glc,-0.15
same,glycan array binding signal (z-score),[11],-0.187
same,glycan array binding signal (z-score),Glc(b1-4)Glc,-0.197
same,glycan array binding signal (z-score),Glc(b1-6)Glc,-0.096
